Source: US10745487B2, “Method of treating cancer by administering an anti-LGR5 monoclonal antibody” (Bionomics Limited, priority 2016, dated 2020)

Legend:
[1] = system: Wnt pathway genes (CTNNB1, β-catenin)
[2] = system: human CTCs (HLA+LGR5+ cells) in peripheral blood; details: 18G7H6A3 15 mg/kg twice/week ip vs. MOPC

With 18G7H6A3 the “Wnt pathway signaling (quantification of Western blot data)” value ([1]; ASPC1 and PANC1 tumors) was “significant inhibition of Wnt pathway signaling”, the “phospho-β-catenin (western blot)” value ([1]; ASPC1 tumors, single agent or in combination with SOC) was “upregulated pβ-catenin” and the “percentage of circulating HLA+LGR5+ cells” value [2] was “significantly reduced”.
